Reference: PubChem BioAssay AID1346428 (National Center for Advancing Translational Sciences (NCATS), 2018)
Hit rate of the full screen: of about 48,000 compounds, about 1,200 (2.5%) were called active. Not shown: some 2% with an inconclusive outcome.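 How the source made its calls: active means activation of at least 60% and not above a set upper limit (about 1 call in 100 departs from these limits); inconclusive means activation of 40% to 60%, or above that upper limit; inactive means activation under 40%.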 The list shows a part of the results.

Each molecule was assayed against Probable G-protein coupled receptor 32 (Homo sapiens) (UniProt O75388) (assay: qHTS for Agonists of Human Resolvin D1 Receptor DRV1). Conditions: CHO-K1 GPR32 beta-arrestin PathHunter luminescence, 90 min; at 76.9 µM; stronger effect = higher value; zero percent set by DMSO-only wells.
Method in brief: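 PathHunter enzyme-fragment complementation, CHO-K1 GPR32 stable line; 2,500 cells/well, overnight attach; cpd 90 min 37 °C 5% CO2; detection reagent 1 h RT; chemiluminescence. DMSO = EC0.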
Further: 0% is about no effect.

Sequence of UniProt O75388 (O75388 whole entry, looked up, the tested form may be a part): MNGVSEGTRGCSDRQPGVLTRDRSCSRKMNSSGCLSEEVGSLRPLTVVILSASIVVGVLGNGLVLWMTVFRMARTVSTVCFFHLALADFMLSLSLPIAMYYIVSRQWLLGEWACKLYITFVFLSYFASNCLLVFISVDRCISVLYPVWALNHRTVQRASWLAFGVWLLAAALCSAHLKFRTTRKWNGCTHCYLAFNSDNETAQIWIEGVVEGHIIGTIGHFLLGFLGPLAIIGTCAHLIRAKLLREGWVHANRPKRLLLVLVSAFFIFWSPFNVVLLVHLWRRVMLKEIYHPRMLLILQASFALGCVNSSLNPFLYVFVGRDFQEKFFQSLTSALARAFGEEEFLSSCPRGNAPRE

activation, inactive:
Cc1coc2cc3oc(=O)c(CC(=O)N4CCCCC4)c(C)c3cc12 -7.09%, Cc1cccc(CSc2nc3cc(C(=O)NC4CCCC4)ccc3c(=O)n2Cc2ccccc2)c1 -14.3%, NC(=O)c1cccc(N)c1 -4.09%, CCc1cccc(NC(=O)Cn2c(=O)c(C(F)(F)F)nc3ccccc32)c1 0.499%, Cc1ccc(CNS(=O)(=O)c2ccc(-c3cnc(C4CC4)o3)cc2)cc1 -10.2%, CCC(CC)C(=O)Nc1c(C(=O)N2CCN(c3ccccc3)CC2)oc2ccccc12 -30.7%, CCCN(CCC)CC(O)Cn1cc(/C=C/C(=O)c2ccc(OC)cc2)c2ccccc21 (configuration not stated) -4.55%, Cc1cc(C)c2c(=O)cc(C(=O)Nc3nc4ccc(F)cc4s3)oc2c1 4.58%, CCCCN(CC)CCCNC(=O)c1cc2c(-c3ccc(OC)c(OC)c3)nn(C)c2s1 -6.73%, CCN(CC)CCNC(=O)Cn1ncc2c([nH]c3ccccc32)c1=O -5.24%, O=C1c2oc3ccc(F)cc3c(=O)c2C(c2cccc([N+](=O)[O-])c2)N1CCCN1CCOCC1 (configuration not stated) -7.87%, Cc1ccc(NC(=O)c2cccn2-c2nnc(N3CCCCC3)s2)cc1Cl -25.7%, Cn1nc(C(=O)N2CCN(c3ccccc3F)CC2)c2c1-c1ccccc1SC2 -16.4%, COCCNC(=O)C1CCCN(S(=O)(=O)c2ccc3c(ccn3C)c2)C1 (configuration not stated) 0.419%, O=C(NCc1ccc(F)cc1)c1ccc(NC(=O)N2CC3CCCN3c3ccccc32)cc1 (configuration not stated) -16.8%, CCOc1ccc(-c2cnc(NCc3ccc(OC)cc3OC)n2C)cc1 -33.3%, CC(=O)c1ccc(NC(=O)c2ncn(-c3ccccc3)n2)cc1 -11.5%, COc1ccc(Cl)cc1NC(=O)CCC(=O)c1ccc(C)cc1 10.8%, Cc1ccc2nc(N(Cc3cccnc3)C(=O)C3COc4ccccc4O3)sc2c1 (configuration not stated) -4.5%, CCc1ccc(CN(C(=O)c2cc3ccccc3oc2=O)C2CCS(=O)(=O)C2)cc1 (configuration not stated) -4.31%, Cc1ccc(CSc2cn(CC(=O)N3CCCCC3)c3ccccc23)cc1 -29.2%, CCc1c(C)sc2c1CCN(Cc1ccc(F)cc1)C2c1ccccc1 (configuration not stated) 6.2%, COc1ccc(CNC(=O)COCc2cc(-c3cccs3)on2)cc1OC 10.5%, CCCCNC(=O)CCCn1c(=O)c2ccccc2n(Cc2ccccc2C)c1=O -13.1%, CCn1cc(C(=O)NCCc2ccccc2)c(=O)c2cc(S(=O)(=O)N(C)C3CCCCC3)ccc21 -11.1%, CC(=O)Nc1cccc(C(=O)NCc2ccc3c(c2)CCN3C(C)=O)c1 -7.41%, COc1ccc(-c2noc(-c3ccc(NCc4ccccc4OC)c([N+](=O)[O-])c3)n2)cc1 -4.73%, Cc1ccc(C2=Nc3ccccc3N(CC(=O)Nc3cccc(F)c3)C(=O)C2)cc1C -19.8%, CN(C)C(=O)CNC(=O)Cc1ccccc1 5.87%, CC(=O)c1[nH]c(C)c(C(=O)NCCc2ccc(C)cc2)c1C -7.34%, O=c1oc2c3c(ccc2c2ccccc12)OCN(Cc1cccc(Cl)c1)C3 -75.9%, CN(C)CCCNc1oc(/C=C/c2ccc(F)cc2)nc1C#N -31%, Cc1ccc(NC(=O)CCCn2c(=O)c3cccn3c3cccnc32)c(Cl)c1 -6.39%, Cc1cc(C)c(NC(=O)CSc2nccn2Cc2ccco2)c(C)c1 -12.2%, O=C(CN1CCN(Cc2ccc(Cl)cc2)C1=O)NCc1ccc(F)cc1 -11.8%, Cc1c(CCNC(=O)Cc2ccccc2)sc2nc(-c3ccc(F)cc3)nn12 -21.3%, CCOc1ccccc1N(C)C(=O)C1CCCN(c2ncnc3onc(-c4ccc(F)cc4)c23)C1 (configuration not stated) -12.1%, Cc1ccc2oc(=O)c3cc(C(=O)N(Cc4ccccc4)C(C)C)sc3c2c1 -4.97%, O=C(CSc1oc(-c2ccco2)nc1S(=O)(=O)c1ccc(Cl)cc1)c1ccc(Cl)cc1 -9.38%, COc1ccc(CNC(=O)CC2N=C3c4ccccc4N=C(SCC(=O)Nc4ccc(N(C)C)cc4)N3C2=O)cc1 (configuration not stated) -9.57%, Cc1ccc(CN2c3ccccc3S(=O)(=O)c3ccccc32)cc1 -19.4%, COc1ccc(-c2c3c(=O)n(C)c(=O)n(C)c3c3c(-c4ccc(C)cc4)nc4ccccc4n23)cc1 1.7%
